Data on 91 compounds can be found in PMC4336329 (PLoS ONE, 2015).

Screen size: about 310,000 compounds; about 2,200 (0.71%) showed an effect of 50% or more. Effects have a minus sign here. This is one part of the list.

The target of the experiment is human ether-à-go-go-related gene (hERG) potassium channel (human, UniProt Q12809). The experiment is described as follows: primary screen, population patch clamp on CHO cells stably expressing hERG.
Chain of human ether-à-go-go-related gene (hERG) potassium channel (Q12809 whole entry, looked up): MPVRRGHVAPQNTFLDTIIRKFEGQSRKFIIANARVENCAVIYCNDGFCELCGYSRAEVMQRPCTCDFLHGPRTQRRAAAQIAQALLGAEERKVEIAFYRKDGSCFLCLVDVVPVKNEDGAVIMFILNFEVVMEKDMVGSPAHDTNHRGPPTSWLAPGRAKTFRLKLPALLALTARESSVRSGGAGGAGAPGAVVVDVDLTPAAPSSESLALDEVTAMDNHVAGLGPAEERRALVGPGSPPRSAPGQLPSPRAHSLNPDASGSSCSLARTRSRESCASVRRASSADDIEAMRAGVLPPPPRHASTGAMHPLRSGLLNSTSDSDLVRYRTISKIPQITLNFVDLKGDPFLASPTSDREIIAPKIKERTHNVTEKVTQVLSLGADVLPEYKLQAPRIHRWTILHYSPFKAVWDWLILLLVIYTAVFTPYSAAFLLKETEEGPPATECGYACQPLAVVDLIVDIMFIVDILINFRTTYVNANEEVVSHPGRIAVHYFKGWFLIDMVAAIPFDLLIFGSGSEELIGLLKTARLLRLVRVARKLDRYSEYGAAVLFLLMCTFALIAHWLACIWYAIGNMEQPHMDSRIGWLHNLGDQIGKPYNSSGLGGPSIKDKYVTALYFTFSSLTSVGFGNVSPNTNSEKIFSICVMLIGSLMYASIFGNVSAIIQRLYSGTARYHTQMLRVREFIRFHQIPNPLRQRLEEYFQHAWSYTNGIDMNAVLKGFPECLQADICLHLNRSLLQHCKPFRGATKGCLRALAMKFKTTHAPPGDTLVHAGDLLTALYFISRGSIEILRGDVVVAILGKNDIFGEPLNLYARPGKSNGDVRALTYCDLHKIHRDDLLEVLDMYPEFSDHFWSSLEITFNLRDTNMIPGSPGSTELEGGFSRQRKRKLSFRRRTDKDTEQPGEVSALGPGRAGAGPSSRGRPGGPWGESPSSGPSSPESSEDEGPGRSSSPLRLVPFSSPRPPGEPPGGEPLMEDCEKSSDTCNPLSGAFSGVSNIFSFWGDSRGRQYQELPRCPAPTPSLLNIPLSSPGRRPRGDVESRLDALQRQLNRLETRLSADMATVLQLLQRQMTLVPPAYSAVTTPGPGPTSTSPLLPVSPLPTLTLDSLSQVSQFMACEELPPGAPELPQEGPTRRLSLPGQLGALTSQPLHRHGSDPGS
With `Cc1cccc(-c2nc3ccccc3c(=O)[nH]2)c1`, the “hERG current change (%, negative = inhibition) at 1uM” value stood at 13.1%.
For `CCOc1ccc(CC(=O)C2=C(N3CCOCC3)CC(C)(C)CC2=O)cc1OCC`, the “hERG current change (%, negative = inhibition) at 1uM” value worked out at 7.38%.
With `COc1ccc(NC(=O)N(CCCN(C)C)Cc2cc3cc(OC)ccc3[nH]c2=O)cc1`, the “hERG current change (%, negative = inhibition) at 1uM” value was -7.1%.
On to `O=C(/C=C/Nc1ccccc1OC(F)(F)F)C(F)(F)F`, for which the “hERG current change (%, negative = inhibition) at 1uM” value came to 5.08%.
For `COc1ccc(OC)c(S(=O)(=O)N2CCC(C(=O)N3CCCCCC3)CC2)c1`, the “hERG current change (%, negative = inhibition) at 1uM” value was found to be 8.86%.
For `COC(=O)c1cn(NC(=O)c2cccnc2)c(=O)c2ccccc12`, the “hERG current change (%, negative = inhibition) at 1uM” value is given as 15%.
In the case of `CN1/C(=C\C(=O)c2cccs2)C(C)(C)c2ccccc21` it was 3.57%; in that of `N=C1C(c2nc(-c3cccc([N+](=O)[O-])c3)cs2)=C(O)CN1NC(=O)c1ccco1`, 9.22%.
As to `CNc1nc(Cl)nc(Nc2ccccc2)n1`, the “hERG current change (%, negative = inhibition) at 1uM” value is 17.5%.
As to `Cc1c(/C=N/Nc2ccc(F)cc2)c(O)n(C)c(=O)c1C#N`, the “hERG current change (%, negative = inhibition) at 1uM” value is given as 8.61%.
In the case of `CCOC(=O)c1ccc(NC(=O)c2c(Cl)cc(C)nc2C)cc1.Cl`, the “hERG current change (%, negative = inhibition) at 1uM” value was determined as 6.89%.
In the case of `COc1cccc(N2CCN(S(=O)(=O)c3cc4c(cc3C)N(C)CCO4)CC2)c1` it was 1.14%.
For `COc1ccc(C(=O)Nc2cc(C(C)=O)c(C)oc2=O)cc1`, the “hERG current change (%, negative = inhibition) at 1uM” value was determined as 12.8%.
As to `COc1ccc(C(=O)n2nc(-c3ccco3)nc2N)cc1`, the “hERG current change (%, negative = inhibition) at 1uM” value was 5.5%.
With `CCCN1CCC(=O)N([C@H](CSc2ccc(OC)cc2)Cc2ccccc2)CC1`, the “hERG current change (%, negative = inhibition) at 1uM” value is -36.3%.
`CN(Cc1ccccn1)Cc1cn(Cc2ccccc2)nc1-c1ccc2c(c1)OCO2`: the “hERG current change (%, negative = inhibition) at 1uM” value was -0.8%.
Consider `O=C(CSc1nc2ncc(Cl)cc2[nH]1)NCCc1ccc(F)cc1`, for which the “hERG current change (%, negative = inhibition) at 1uM” value is 11.2%.
For the compound `O=C(NC1CCCCCCC1)c1cccnc1`, the “hERG current change (%, negative = inhibition) at 1uM” value was 5.68%.
Turning to `CC1CCc2nn(CC(=O)NC3CCCC(C)C3C)cc2C1` (stereo not shown), the “hERG current change (%, negative = inhibition) at 1uM” value came to 5.66%.
For the compound `N/C(=N\OC(=O)c1ccc2c(c1)OCO2)c1cccc(Br)c1`, the “hERG current change (%, negative = inhibition) at 1uM” value came to 6.24%.
As to `CCCCNC(=O)CCn1nc(-c2ccc(Cl)cc2)ccc1=O`, the “hERG current change (%, negative = inhibition) at 1uM” value came out at 5.63%.
Turning to `O=C(NC1CCCCC1)Oc1cccc2ccccc12`, the “hERG current change (%, negative = inhibition) at 1uM” value is on record as 15.9%.
`COc1ccc(C2NC(=O)CS2)cc1` (stereo not shown): the “hERG current change (%, negative = inhibition) at 1uM” value was -8.67%.
`O=C(CC1C(=O)NCCN1C(=O)c1ccc([N+](=O)[O-])cc1)Nc1cccc(Cl)c1` (stereo not shown): the “hERG current change (%, negative = inhibition) at 1uM” value is listed as -2.37%.
`N#C/C(=C/c1ccco1)C(N)=S`: the “hERG current change (%, negative = inhibition) at 1uM” value turned out to be 6.97%.
`O=C(O)c1cc(NC(=O)C2CCCO2)cc(NC(=O)C2CCCO2)c1` (stereo not shown): the “hERG current change (%, negative = inhibition) at 1uM” value was found to be 6.2%.
For the compound `CCOC(=O)c1cc(CC)sc1/N=C/C1C(=O)CCCC1=O`, the “hERG current change (%, negative = inhibition) at 1uM” value stood at 11.1%.
Consider `CC(C)NC(=O)c1c(O)c2cccc3c2n(c1=O)CCC3`, for which the “hERG current change (%, negative = inhibition) at 1uM” value worked out at 15.5%.
As for `COCCn1nnnc1C(c1ccc2ncccc2c1)N1CCN(c2ccccc2F)CC1` (stereo not shown), the “hERG current change (%, negative = inhibition) at 1uM” value came out at 7.87%.
Regarding `Cn1c(=O)c2c(ncn2CC(=O)OCC(=O)NC2CCCc3ccccc32)n(C)c1=O` (stereo not shown), the “hERG current change (%, negative = inhibition) at 1uM” value is 6.89%.
In the case of `NC(=O)COC(=O)C12CC3CC(CC(O)(C3)C1)C2` it was 10.1%; in that of `CCOC(=O)C1CCCN(c2oc(-c3ccc(F)cc3)nc2C#N)C1` (stereo not shown), -0.349%.
As for `O=C(Nc1cccc([N+](=O)[O-])c1)C1CCN(C(=O)Cc2ccccc2)CC1`, the “hERG current change (%, negative = inhibition) at 1uM” value is -12.8%.
Under `CCOC(=O)C1CCN(C(=O)CCS(=O)(=O)c2ccc3c(c2)CCN3C(=O)CC)CC1` stands 6.63%; under `c1ccc(Cn2nnc3c(N4CCN(Cc5ccc6c(c5)OCO6)CC4)ncnc32)cc1`, -0.682%.
Regarding `CCOc1cc2[nH]c(=S)n(CCc3ccc(OC)c(OC)c3)c(=O)c2cc1OCC`, the “hERG current change (%, negative = inhibition) at 1uM” value stood at 1.01%.
Under `O=C(CCN1C(=O)[C@@H]2Cc3ccccc3CN2C1=O)N[C@@H](C(=O)O)c1ccccc1` stands 11.1%.
For the compound `O=C(Cc1ccc(F)cc1)Nc1nc(-c2ccc(F)cc2)cs1`, the “hERG current change (%, negative = inhibition) at 1uM” value came to 22.4%.
In the case of `O=C(/C=C/c1ccc([N+](=O)[O-])cc1)N1CCN(S(=O)(=O)c2cccs2)CC1`, the “hERG current change (%, negative = inhibition) at 1uM” value amounted to 2.21%.
For `Cc1csc(NC(=O)c2cnc3ccccc3n2)n1`, the “hERG current change (%, negative = inhibition) at 1uM” value was 7.3%.
For the compound `COc1ccc(Cl)cc1NC(=O)C1CC(c2c(F)cccc2Cl)=NO1` (stereo not shown), the “hERG current change (%, negative = inhibition) at 1uM” value is reported as 8.77%.
Turning to `CCN(CC)CCN(C(=O)c1ccc(C(C)=O)cc1)c1nc2ccc(Cl)cc2s1.Cl`, the “hERG current change (%, negative = inhibition) at 1uM” value is given as 6.65%.
Regarding `CC(=O)Nc1cccc(Oc2ccc3c(c2)C(=O)N(CCC(=O)O)C3=O)c1`, the “hERG current change (%, negative = inhibition) at 1uM” value is on record as 14.8%.
As for `Cc1ccccc1C(=O)N1CCc2cc(-c3csc(NC(=O)CN4CCCC4)n3)ccc21`, the “hERG current change (%, negative = inhibition) at 1uM” value is given as 14.3%.
As to `O=C(NCCS(=O)(=O)N1CCN(c2ccccc2F)CC1)c1c(F)cccc1F`, the “hERG current change (%, negative = inhibition) at 1uM” value worked out at 3.03%.
On to `Cc1cccc(OCCCCNCc2ccccc2)c1.O=C(O)C(=O)O`, for which the “hERG current change (%, negative = inhibition) at 1uM” value is reported as -7.43%.
In the case of `COc1ccc(CN2CCCC(C(=O)N3CCCCC3)C2)cc1.O=C(O)C(=O)O` (stereo not shown), the “hERG current change (%, negative = inhibition) at 1uM” value is 10.5%.
`Cc1ccc(NC(=O)C2=NNC(=O)CC2)cc1S(=O)(=O)Nc1ccc(SC(F)F)cc1`: the “hERG current change (%, negative = inhibition) at 1uM” value is 2.82%.
With `CCc1nnc(NC(=O)CSc2nccn2-c2cccc(C)c2C)s1`, the “hERG current change (%, negative = inhibition) at 1uM” value was determined as 17.4%.
In the case of `CC(=O)N(CCC1(C(C)C)CCOC(C)(C)C1)C(C)c1cccs1` (stereo not shown) it was 11.5%; in that of `CC1(CC(=O)N/N=C/c2ccc(-c3ccc(C(=O)O)cc3)o2)OCCO1`, 1.83%.
`CC(CO)Nc1nc(SCc2ccccc2)nc2sc3c(c12)CCC3` (stereo not shown): the “hERG current change (%, negative = inhibition) at 1uM” value worked out at 15.5%.
`O=C(NCC1CCCN1S(=O)(=O)c1cccs1)c1c(F)cccc1F` (stereo not shown): the “hERG current change (%, negative = inhibition) at 1uM” value turned out to be 17.5%.
Under `CCCn1c(C)cc(C(=O)CSc2nc3nc(C)cc(C)n3n2)c1C` stands 8.43%.
In the case of `COc1ccc(C)cc1NC(=O)COC(=O)c1ccc([N+](=O)[O-])o1` it was 11.9%; in that of `CCCC(=O)Nc1cc(=O)[nH]c2ncnn12`, 7.73%; in that of `Cc1nn(CC(=O)N2CCOCC2)c(=O)c2c1sc1ccccc12`, 2.63%.
With `CCc1ccc(NC(=O)CCn2c(=O)oc3ccccc32)cc1`, the “hERG current change (%, negative = inhibition) at 1uM” value is recorded as 5.27%.
In the case of `CCn1c(CN2CCN(c3ccc(Cl)cc3)CC2)nc2ccccc21` it was -12.7%; in that of `Cc1ccc(C(C)NC(=S)NC2CCCCC2)cc1C` (stereo not shown), 9.56%; in that of `COc1ccc(C(=O)NCC(=O)OCc2ccccc2F)cc1`, 9.29%.
As to `Cc1cc(C)c(S(=O)(=O)N(CC(=O)N2CCOCC2)C2CCCCC2)c(C)c1`, the “hERG current change (%, negative = inhibition) at 1uM” value is given as 4.05%.
For `Cc1ccc(C(=O)N/C(=C\c2cccs2)c2nc3ccccc3[nH]2)cc1`, the “hERG current change (%, negative = inhibition) at 1uM” value was 7.15%.
With `Cc1cccc(C(=O)N[C@H](C(=O)OCC(=O)NC(=O)c2cccn2C)C(C)C)c1`, the “hERG current change (%, negative = inhibition) at 1uM” value stood at 10.6%.
Under `O=C(O)Cc1ccc(NCc2ccccc2Cl)cc1` stands 3.32%; under `CN(C)c1ccc(S(=O)(=O)N2CCCCC2)cc1NC(=O)CN1C(=O)NC2(CCCC2)C1=O`, 13.2%.
Take `O=C(c1c[nH]c2ccc(F)cc2c1=O)N1CCCCCC1`: the “hERG current change (%, negative = inhibition) at 1uM” value came out at 12.3%.
Under `O=C(NNC(=O)C1CCC1)c1cccc(Cl)c1` stands 5.6%; under `O=C(Nc1nc2c(F)cc(F)cc2s1)C1COc2ccccc2O1` (stereo not shown), 8.72%.
Under `COc1ccc(N(CC(=O)NCCSc2ccccc2)S(=O)(=O)c2ccccc2)cc1OC` stands 7.09%; under `CC(C)CN1C(=O)/C(=C/c2ccco2)NC1=S`, 17%; under `CC1=CC=CN2CC(O)CN=C12.Cl` (stereo not shown), 9.24%.
With `Cl.NCC1CC2c3ccccc3C1c1ccccc12` (stereo not shown), the “hERG current change (%, negative = inhibition) at 1uM” value is reported as 10.2%.
Turning to `O=C(NCCCO)C(=O)Nc1cc2c3c(c1)CCN3C(=O)CC2`, the “hERG current change (%, negative = inhibition) at 1uM” value was 10.4%.
On to `Cc1nc2c(sc3nc(N4CCOCC4)c4c(c32)CC(C)(C)OC4)c(-c2ccccc2)c1C(=O)O`, for which the “hERG current change (%, negative = inhibition) at 1uM” value is on record as 11%.
Turning to `CCC(CC)C(=O)Nc1nnc(SCC(=O)NC2CC2)s1`, the “hERG current change (%, negative = inhibition) at 1uM” value was 14%.
As to `O=C(c1cc(F)ccc1F)N1CCC(N2CCC(C(=O)N3CCCC3)CC2)CC1`, the “hERG current change (%, negative = inhibition) at 1uM” value is on record as 16.9%.
For `CCn1c(=O)n(CC(=O)Nc2cccc(OC)c2)c(=O)c2ccccc21`, the “hERG current change (%, negative = inhibition) at 1uM” value was -1.16%.
With `COc1ccccc1NC(=S)NC(NC(C)=O)C(Cl)(Cl)Cl` (stereo not shown), the “hERG current change (%, negative = inhibition) at 1uM” value came to 8.67%.
As to `COc1ccc(NC(=O)CC2C(=O)N(c3ccccc3)C(=O)N2CCc2cccs2)cc1` (stereo not shown), the “hERG current change (%, negative = inhibition) at 1uM” value is 10%.
In the case of `Cc1cc(Br)c(NC(=O)CCl)c(Br)c1` it was -3.82%; in that of `NS(=O)(=O)c1ccc(CCNC(=O)CCc2ccccc2)cc1`, -3.02%.
In the case of `Cc1c(NC(=O)Nc2cccc(Cl)c2Cl)c(=O)n(-c2ccccc2)n1C` it was -2.55%; in that of `O=C(N/N=C/c1cccc(O)c1)NC1CCCCC1`, 5.29%; in that of `Cc1cc(C)n(-c2nc(N(C)C)nc(N(C)C)n2)n1`, 10.7%.
Under `CN(C)Cc1c(O)ccc2c1O/C(=C\C=C\c1ccccc1)C2=O` stands 5.72%; under `CC(Cc1ccccc1)NC(=O)c1cc2ccccc2o1` (stereo not shown), 16.1%; under `COc1ccc(CC(=O)Nc2ccc(C(N)=O)cc2)cc1`, 10.1%.
Regarding `O=C(O)C1(c2ccccc2)CCN(S(=O)(=O)c2ccc(F)c(F)c2)CC1`, the “hERG current change (%, negative = inhibition) at 1uM” value came out at 2.32%.
Consider `CC(C)N(C)Cc1nnnn1CC(=O)NCCc1cccc(C(F)(F)F)c1`, for which the “hERG current change (%, negative = inhibition) at 1uM” value is 9.44%.
For the compound `CCOC(=O)c1sc(NC(=O)C2CC2)cc1C`, the “hERG current change (%, negative = inhibition) at 1uM” value is given as 9.63%.
